Laboratory results from the BET-seq Pho4 binding data (Le et al. 2018).
The other results are listed elsewhere or left out. Values were computed here from the reads of four pooled replicates and scatter widely.

target: T1, Pho4 (S. cerevisiae) (UniProt P07270); assay: relative binding free energy (BET-seq); higher = weaker binding; conditions: reference: library average
T1 sequence: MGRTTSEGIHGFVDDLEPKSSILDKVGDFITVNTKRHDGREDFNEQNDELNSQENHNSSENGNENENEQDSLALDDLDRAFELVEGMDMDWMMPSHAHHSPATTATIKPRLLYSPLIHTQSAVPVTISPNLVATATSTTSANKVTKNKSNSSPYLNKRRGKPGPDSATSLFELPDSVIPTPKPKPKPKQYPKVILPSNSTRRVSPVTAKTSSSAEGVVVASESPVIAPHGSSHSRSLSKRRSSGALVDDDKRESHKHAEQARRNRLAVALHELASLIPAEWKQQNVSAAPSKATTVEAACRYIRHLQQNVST

Sequence	relative binding free energy [kcal/mol]
GTGAGCACGTGTTGGA	0.04
AGTTACACGTGGGTAT	0.01
GGGCGCACGTGGGCCT	-0.08
TTTTACACGTGCTGCG	0.06
ATAGGCACGTGTAAAG	0.05
ATGGACACGTGGAGGG	-0.12
GTGCCCACGTGTTAGT	0.04
GTTTACACGTGTATGT	0.11
CTAGGCACGTGGGCGA	-0.32
TGGTGCACGTGAGACG	0.08
ATGTGCACGTGGCTTA	-0.18
TCTTGCACGTGTGGCT	0.05
TCTTACACGTGGGGTG	-0.03
GCGGTCACGTGTGTGT	0.05
GTGGACACGTGATAGC	0.21
ATGGGCACGTGGCGTA	-0.32
GGATTCACGTGAATTG	0.51
AGTTACACGTGTTGTT	0.23
CTACGCACGTGGGTTG	-0.2
GACGTCACGTGGTGAG	0.17
CTTCTCACGTGTTGGG	0.2
CGTGACACGTGGGTGG	-0.18
TAAAACACGTGTGGGT	0.1
TGGTACACGTGAAGCG	0.45
TTTTTCACGTGGTAAT	0.33
GATTTCACGTGGGCTT	0.37

Sequence	relative binding free energy [kcal/mol]
CGGTCCACGTGTGGTA	0
ATACGCACGTGGGGGT	-0.35
CGGTTCACGTGTGATA	0.2
GTGTGCACGTGTTTTA	0.11
TTAGGCACGTGCTAGG	-0.06
TTGCCCACGTGTTGTG	-0.2
GGGCACACGTGTTTTA	0.17
ACGAGCACGTGGATGG	-0.13
GTTTGCACGTGGATGC	0.19
TTCTGCACGTGTTGAT	-0.01
TCTGTCACGTGATATG	0.08
ATGTACACGTGAGTAA	0.23
TGGTGCACGTGAGATA	0.18
CAGAGCACGTGGTGAG	-0.07
GCTTGCACGTGATATG	0.16
CTTATCACGTGTAGGT	0.11
ATGATCACGTGAGTAG	0.34
TTTAGCACGTGGTAAT	-0.15
GGGATCACGTGTGACG	0.12
TTGTACACGTGTACGG	0.06
CGGGGCACGTGGTTGA	-0.12
CTTGTCACGTGATATT	0.08
TAGGTCACGTGATTAA	0.3
TAGTACACGTGTTTTT	0.11
TAGTGCACGTGTGCGA	0.1
GTTCGCACGTGGAGAG	-0.11

Sequence	relative binding free energy [kcal/mol]
TCCTGCACGTGGGTTT	-0.14
TGCGCCACGTGAGGGT	0.11
TGAGACACGTGGTGAT	-0.17
GAAATCACGTGGGTGT	0.13
GGGTCCACGTGGGTAA	-0.04
GACGTCACGTGATGTG	0.16
TTTACCACGTGTTAGA	0.13
TGTTGCACGTGGACGT	-0.08
TCCTGCACGTGGTGTT	-0.27
AGGGACACGTGGGATG	-0.04
TTAGGCACGTGGGTTT	-0.19
TGCTTCACGTGTTGGG	0.37
ATGTTCACGTGTCATG	0.12
AGCGGCACGTGTCGGT	-0.04
TGGGCCACGTGGTGCG	-0.23
AGGTGCACGTGTTTAA	-0.12
TTGAGCACGTGGAAAG	-0.03
GATCTCACGTGTGATT	0.41
TCAGGCACGTGTAAGT	-0.05
ATTCTCACGTGTAGTT	0.24
AAGTCCACGTGTTGTG	-0.03
TCGGACACGTGGGGAT	-0.14
TGATACACGTGGTGGG	0
GTCAGCACGTGGTGGT	0
ATGTTCACGTGGCGCG	0.07
TCGCTCACGTGTTGGT	0.09

Sequence	relative binding free energy [kcal/mol]
GGGAGCACGTGTTAAG	-0.07
TGGAACACGTGGGTCG	-0.21
AGTCTCACGTGAGTTG	0.35
GGTTTCACGTGGGGAC	0.27
AAAGGCACGTGTTTGG	-0.12
CTTGGCACGTGGGTCT	-0.25
ATGAGCACGTGGGGAC	-0.23
TGTGTCACGTGGTAAC	0.07
TTCGGCACGTGAATGA	0.17
TAGATCACGTGGATTA	0.11
GGATTCACGTGACGTT	0.49
TAATTCACGTGGATTT	0.21
ATGGTCACGTGGTGCT	-0.03
GTTCACACGTGTAGGA	0.22
GTTGCCACGTGTTGAT	-0.09
AGTTTCACGTGTTGCT	0.18
AATTACACGTGTTGGG	0.12
TGGCACACGTGGTATG	-0.01
TGTGCCACGTGTGGAA	-0.05
GGGTACACGTGATGGC	0.22
CCTGTCACGTGGGGCT	-0.01
TAGAACACGTGTGGGC	0.06
TTTGCCACGTGTCTTG	-0.13
ATTTCCACGTGTTGAG	0.07
GCGGTCACGTGTTGCG	0.05
CTGGGCACGTGCGGGG	-0.15

Sequence	relative binding free energy [kcal/mol]
TGATTCACGTGTCTGA	0.22
CTCTGCACGTGGGTTA	-0.13
TTGTCCACGTGAGCTT	0.42
GCTTGCACGTGGCTTG	0.05
GAATTCACGTGCGGTA	0.24
ATTCACACGTGTGTGG	0.18
AGTGGCACGTGCGTTT	-0.15
TATTGCACGTGTTTTC	0.13
GTTAACACGTGGCGAG	0.08
GGGGGCACGTGGAGCT	-0.1
AATGTCACGTGCGTGT	0.08
GATTTCACGTGGTGCT	0.21
GGGTGCACGTGATGTT	0.19
AGTTTCACGTGATCGG	0.34
GGATGCACGTGTTGGA	0.02
AATTTCACGTGTTTTT	0.18
TTCGTCACGTGTCAGT	0.1
AGATGCACGTGGAGGC	-0.19
GTAGTCACGTGGGATT	0.11
GAGGTCACGTGGTGGG	0.25
AGTTTCACGTGTGAGA	0.32
GGTCACACGTGTTCTG	0.29
GGGGTCACGTGAGAAA	0.5
ATAGGCACGTGCCTTG	-0.15
GGGAGCACGTGGGTTA	-0.21
GGGGGCACGTGAGCTT	0.16

Sequence	relative binding free energy [kcal/mol]
TTCAACACGTGGTATT	-0.07
TTGGGCACGTGGTCTC	-0.23
CTTGTCACGTGTTGGG	0.19
TATGTCACGTGGAGCG	0.03
TATGGCACGTGTGGTT	0.01
ATCTTCACGTGTTGGA	0.23
TGGATCACGTGACTTT	0.24
ATAGACACGTGGGGGG	-0.08
TAGGGCACGTGGTTGA	-0.18
TTCGGCACGTGTTGAA	0
AATAACACGTGTTTTG	-0.03
ATCTTCACGTGTATAT	0.37
TTGATCACGTGGTCCG	0.17
TTAAGCACGTGCTGTG	-0.23
TTGTGCACGTGTGCTT	0.01
GAGTTCACGTGAGCGG	0.58
TTTGGCACGTGACGTG	-0.04
TTTGTCACGTGGATTG	0.13
TTTGTCACGTGAGCAT	0.16
TCGAGCACGTGGGATG	-0.22
CGTTGCACGTGTAGTT	0.12
CATTGCACGTGGTCGG	-0.1
TAAAGCACGTGTGGGT	-0.15
TGATTCACGTGTATAT	0.33
TTAGTCACGTGGACGT	0.11
TTTAACACGTGATTTG	0.17

Sequence	relative binding free energy [kcal/mol]
CTGTTCACGTGAGGGC	0.28
GCGTTCACGTGAGGGG	0.42
GCTGACACGTGGGGGC	-0.05
TGACTCACGTGGGCGT	0.03
GGGGACACGTGCAGGG	0.01
TAGGTCACGTGTGCGC	0.15
TTTATCACGTGTGCAG	0.05
TTTTGCACGTGAGCTA	0.27
TGAAGCACGTGGGTTA	-0.2
TAAGTCACGTGACATG	0.21
GTTGACACGTGGCTAG	0.13
GGTCGCACGTGAGTGT	0.09
ATTTTCACGTGGGCCA	0.21
TGTGTCACGTGCTCGG	0.03
TGGGTCACGTGGCGAG	0.05
GAGTTCACGTGGAGCG	0.38
TTCTACACGTGGGTCG	0.1
ATTATCACGTGAAATG	0.32
GTTTGCACGTGGAATA	0.14
ATTAACACGTGGTGCG	-0.14
CATTGCACGTGTTATG	0.07
AGGACCACGTGGTAGG	-0.2
TAATGCACGTGAATTT	0.09
GAATGCACGTGAGGTT	0.33
ACTGACACGTGTGTGA	0.1
ATGTGCACGTGGATAA	-0.06

Sequence	relative binding free energy [kcal/mol]
GGTTGCACGTGGTCGC	-0.17
GCTTTCACGTGCGGGT	0.23
AATAGCACGTGAGGTA	0.12
ACGGGCACGTGAAGGT	-0.01
GAGTTCACGTGTGAGT	0.47
GGGATCACGTGGGTCG	0.08
CTGGTCACGTGATTTG	0.18
AAGTTCACGTGATGCT	0.34
TGAGGCACGTGTGGTA	0.08
CTTAACACGTGGTGGT	-0.2
GTCGGCACGTGAGGTC	0.24
TTTGTCACGTGAATGA	0.26
GTCATCACGTGTGTGG	0.26
AGAGACACGTGTTGCT	0.13
GCTGTCACGTGGAGTG	0.07
GGTAACACGTGGCAGG	-0.16
TTGGGCACGTGTCAAA	0
GGCTGCACGTGATGAG	0.19
TTTGGCACGTGTATCG	-0.01
TTATACACGTGGTTCT	-0.02
GATTTCACGTGAATTG	0.31
ACATGCACGTGTCGGG	0.07
TTTGCCACGTGGTAGC	-0.08
CATTTCACGTGGGAGT	0.28
GGTGCCACGTGAGGTG	0.17
GTTGGCACGTGTAACG	0.14

Sequence	relative binding free energy [kcal/mol]
GAGTTCACGTGTTTAG	0.27
GAGGCCACGTGGGGAT	-0.16
TCGGGCACGTGTAGTG	-0.09
TTGGCCACGTGATGTG	0.09
GTGGTCACGTGCTGCT	0.05
TTATGCACGTGTTGAG	-0.05
TCTTACACGTGGATGG	0.32
GTGGCCACGTGGGAAT	-0.1
TGTATCACGTGGACAG	0.1
TTAGGCACGTGGCTGA	-0.14
GCGATCACGTGGGGGA	0.2
GCCTTCACGTGTGTGA	0.4
ATAATCACGTGTTCTT	0.18
TTAAACACGTGATAAG	0.17
AGGGACACGTGGCGAT	-0.01
TCGGGCACGTGGGGGG	-0.12
AGGATCACGTGTTATG	0.22
CTTAACACGTGGGTGT	-0.24
AAGCTCACGTGAGTTT	0.53
GTGTTCACGTGTTAAC	0.4
GCGGTCACGTGATGGG	0.28
GACGGCACGTGGCGGG	-0.19
